# Measured values taken from the supplement of paper PMC8728848.
# This is one part of the list.
# Experiments:
# Test in all cases: glycan array binding signal (z-score within array); higher = stronger binding
# Settings in all cases: glycan notation: IUPAC condensed, linker removed
# Fuc(a1-2)Gal = biological target: Fuc(a1-2)Gal
# In short: (§1)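 The binding signal is a Z-score computed within each array. Data were drawn from 3228 arrays in the Consortium for Functional Glycomics database, restricted to those with a known protein sequence. Scores were averaged over arrays of the same protein sequence at different concentrations or buffers, and over linkers, and negative values can be taken as non-binding.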
# Fuc(a1-2)Gal(b1-3)GalNAc = biological target: Fuc(a1-2)Gal(b1-3)GalNAc
# In short: as §1
# [1] = biological target: Fuc(a1-2)Gal(b1-3)GalNAc(b1-3)Gal
# In short: as §1
# [2] = biological target: Fuc(a1-2)Gal(b1-3)GalNAc(b1-3)Gal(a1-4)Gal(b1-4)Glc
# In short: as §1
# [3] = biological target: Fuc(a1-2)Gal(b1-3)GalNAc(b1-3)Gal(b1-4)Glc
# In short: as §1
# [4] = biological target: Fuc(a1-2)Gal(b1-3)GalNAc(b1-4)[Neu5Ac(a2-3)]Gal(b1-4)Glc
# In short: as §1
# [5] = biological target: Fuc(a1-2)Gal(b1-3)[Fuc(a1-4)]GlcNAc
# In short: as §1
# Fuc(a1-2)Gal(b1-4)Glc = biological target: Fuc(a1-2)Gal(b1-4)Glc
# In short: as §1
# Fuc(a1-2)Gal(b1-4)GlcNAc = biological target: Fuc(a1-2)Gal(b1-4)GlcNAc
# In short: as §1
# [6] = biological target: Fuc(a1-2)Gal(b1-4)GlcNAc(b1-3)Gal(b1-4)GlcNAc
# In short: as §1
# [7] = biological target: Fuc(a1-2)Gal(b1-4)GlcNAc(b1-3)Gal(b1-4)GlcNAc(b1-3)Gal(b1-4)GlcNAc
# In short: as §1
# [8] = biological target: Fuc(a1-2)Gal(b1-4)[Fuc(a1-3)]GalNAc(b1-3)Gal(b1-4)[Fuc(a1-3)]GlcNAc
# In short: as §1
# [9] = biological target: Fuc(a1-2)Gal(b1-4)[Fuc(a1-3)]GalNAc(b1-3)Gal(b1-4)[Fuc(a1-3)]GlcNAc(b1-3)Gal(b1-4)[Fuc(a1-3)]GalNAc
# In short: as §1
# [10] = biological target: Fuc(a1-2)Gal(b1-4)[Fuc(a1-3)]GlcNAc
# In short: as §1
# Fuc(a1-2)GlcNAc = biological target: Fuc(a1-2)GlcNAc
# In short: as §1
# Fuc(a1-2)[Gal(a1-3)]Gal = biological target: Fuc(a1-2)[Gal(a1-3)]Gal
# In short: as §1
# [11] = biological target: Fuc(a1-2)[Gal(a1-3)]Gal(b1-3)GlcNAc
# In short: as §1
# [12] = biological target: Fuc(a1-2)[Gal(a1-3)]Gal(b1-4)Glc
# In short: as §1
# [13] = biological target: Fuc(a1-2)[Gal(a1-3)]Gal(b1-4)GlcNAc
# In short: as §1
# [14] = biological target: Fuc(a1-2)[Gal(a1-3)]Gal(b1-4)[Fuc(a1-3)]GlcNAc
# In short: as §1
# [15] = biological target: Fuc(a1-2)[Gal(a1-4)]Gal(b1-4)GalNAc
# In short: as §1
# [16] = biological target: Fuc(a1-2)[GalNAc(a1-3)]Gal
# In short: as §1
# [17] = biological target: Fuc(a1-2)[GalNAc(a1-3)]Gal(b1-3)GlcNAc
# In short: as §1
# [18] = biological target: Fuc(a1-2)[GalNAc(a1-3)]Gal(b1-4)Glc
# In short: as §1
# [19] = biological target: Fuc(a1-2)[GalNAc(a1-3)]Gal(b1-4)GlcNAc
# In short: as §1
# [20] = biological target: Fuc(a1-2)[GalNAc(a1-3)]Gal(b1-4)[Fuc(a1-3)]GlcNAc
# In short: as §1
# [21] = biological target: Fuc(a1-2)[GalNAc(a1-4)]Gal(b1-4)GlcNAc
# In short: as §1
# Fuc(a1-3)GlcNAc = biological target: Fuc(a1-3)GlcNAc
# In short: as §1
# [22] = biological target: Fuc(a1-3)[Gal(b1-4)]GlcNAc
# In short: as §1
# [23] = biological target: Fuc(a1-3)[Gal(b1-4)]GlcNAc(b1-4)Gal(b1-4)[Fuc(a1-3)]GlcNAc
# In short: as §1
# [24] = biological target: Fuc(a1-3)[Gal(b1-4)]GlcNAc(b1-4)Gal(b1-4)[Fuc(a1-3)]GlcNAc(b1-4)Gal(b1-4)[Fuc(a1-3)]GlcNAc
# In short: as §1
# [25] = biological target: Fuc(a1-3)[Gal3S(b1-4)]GlcNAc
# In short: as §1
# [26] = biological target: Fuc(a1-3)[GalNAc(b1-4)]Gal(b1-4)GlcNAc
# In short: as §1
# Fuc(a1-4)GlcNAc = biological target: Fuc(a1-4)GlcNAc
# In short: as §1
# Fuc(b1-3)GlcNAc = biological target: Fuc(b1-3)GlcNAc
# In short: as §1
# Gal(a1-2)Gal = biological target: Gal(a1-2)Gal
# In short: as §1
# Gal(a1-3)Gal = biological target: Gal(a1-3)Gal
# In short: as §1
# Gal(a1-3)Gal(b1-3)Glc = biological target: Gal(a1-3)Gal(b1-3)Glc
# In short: as §1
# Gal(a1-3)Gal(b1-3)GlcNAc = biological target: Gal(a1-3)Gal(b1-3)GlcNAc
# In short: as §1
# Gal(a1-3)Gal(b1-4)GlcNAc = biological target: Gal(a1-3)Gal(b1-4)GlcNAc
# In short: as §1
# [27] = biological target: Gal(a1-3)Gal(b1-4)[Fuc(a1-3)]GalNAc
# In short: as §1
# Gal(a1-3)GlcNAc = biological target: Gal(a1-3)GlcNAc
# In short: as §1
# [28] = biological target: Gal(a1-3)[Gal(a1-4)]Gal(b1-4)GlcNAc
# In short: as §1
# Gal(a1-4)Gal(b1-4)Gal = biological target: Gal(a1-4)Gal(b1-4)Gal
# In short: as §1
# Gal(a1-4)Gal(b1-4)GalNAc = biological target: Gal(a1-4)Gal(b1-4)GalNAc
# In short: as §1
binder,measurement,setting,value
NakA (Mycobacterium tuberculosum) (protein) SVVKPTKVTVFSPDGGADNPGEADLAIDGNPATSWKTDIYTDPVPFPSFKNGVGLMLQLPQATVVGTVAIDVASTGTKVEIRSASTPTPATLEDTAVLTSATALRPGHNTISVEAAAPTSNLLVWISTLGTTDGKSQADISEITIYAASD,glycan array binding signal (z-score),Fuc(a1-2)Gal,1.69
same,glycan array binding signal (z-score),Fuc(a1-2)Gal(b1-3)GalNAc,1.25
same,glycan array binding signal (z-score),[1],-0.07
same,glycan array binding signal (z-score),[2],0.748
same,glycan array binding signal (z-score),[3],0.15
same,glycan array binding signal (z-score),[4],-0.166
same,glycan array binding signal (z-score),[5],0.759
same,glycan array binding signal (z-score),Fuc(a1-2)Gal(b1-4)Glc,2.42
same,glycan array binding signal (z-score),Fuc(a1-2)Gal(b1-4)GlcNAc,1.61
same,glycan array binding signal (z-score),[6],1.64
same,glycan array binding signal (z-score),[7],2.46
same,glycan array binding signal (z-score),[8],1.53
same,glycan array binding signal (z-score),[9],2.85
same,glycan array binding signal (z-score),[10],2.46
same,glycan array binding signal (z-score),Fuc(a1-2)GlcNAc,0.978
same,glycan array binding signal (z-score),Fuc(a1-2)[Gal(a1-3)]Gal,0.037
same,glycan array binding signal (z-score),[11],-0.261
same,glycan array binding signal (z-score),[12],0.028
same,glycan array binding signal (z-score),[13],-0.351
same,glycan array binding signal (z-score),[14],2.29
same,glycan array binding signal (z-score),[15],0.019
same,glycan array binding signal (z-score),[16],0.057
same,glycan array binding signal (z-score),[17],1.21
same,glycan array binding signal (z-score),[18],0.489
same,glycan array binding signal (z-score),[19],0.624
same,glycan array binding signal (z-score),[20],1.32
same,glycan array binding signal (z-score),[21],0.052
same,glycan array binding signal (z-score),Fuc(a1-3)GlcNAc,3.17
same,glycan array binding signal (z-score),[22],-0.303
same,glycan array binding signal (z-score),[23],0.114
same,glycan array binding signal (z-score),[24],-0.308
same,glycan array binding signal (z-score),[25],-0.293
same,glycan array binding signal (z-score),[26],-0.165
same,glycan array binding signal (z-score),Fuc(a1-4)GlcNAc,0.475
same,glycan array binding signal (z-score),Fuc(b1-3)GlcNAc,0.066
same,glycan array binding signal (z-score),Gal(a1-2)Gal,-0.019
same,glycan array binding signal (z-score),Gal(a1-3)Gal,0.214
same,glycan array binding signal (z-score),Gal(a1-3)Gal(b1-3)Glc,-0.063
same,glycan array binding signal (z-score),Gal(a1-3)Gal(b1-3)GlcNAc,-0.365
same,glycan array binding signal (z-score),Gal(a1-3)Gal(b1-4)GlcNAc,-0.289
same,glycan array binding signal (z-score),[27],1.71
same,glycan array binding signal (z-score),Gal(a1-3)GlcNAc,-0.187
same,glycan array binding signal (z-score),[28],-0.295
same,glycan array binding signal (z-score),Gal(a1-4)Gal(b1-4)Gal,-0.487
same,glycan array binding signal (z-score),Gal(a1-4)Gal(b1-4)GalNAc,-0.122
